Results from the supplement of paper PMC7266297.
Structures can show the parent of a compound that is named as a salt. Some of the results follow. Repeats are few or missing, and single values can be far off.

Assays:
KB-3-1 = assay: growth inhibition relative to DMSO control (SRB); cervical cancer cells: KB-3-1 is the parent and KB-V1 overexpresses MDR1; SRB is the sulforhodamine B stain; higher = more growth inhibition; conditions: 1 µM; 72 h
KB-V1 = assay: as above; conditions: 1 µM; 72 h
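Note: Read-out is SRB optical density at 490 nm, with the control being wells given 0.5% DMSO vehicle, and compound added one day after cells were plated.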

| Compound | growth inhibition (KB-3-1) [%] | growth inhibition (KB-V1) [%] |
| --- | --- | --- |
| Nc1nc(N)c2nc(-c3cccc(O)c3)c(-c3cccc(O)c3)nc2n1 | 12.1 | 34.9 |
| Cc1nc2n(c(=O)c1CCN1CCC(c3noc4cc(F)ccc34)CC1)CCCC2 [Risperidone] | 37.1 | 17.8 |
| Cc1ccc(S(=O)(=O)NC(=O)NN2CC3CCCC3C2)cc1 (stereo not given) [Gliclazide] | 23.3 | 1.06 |
| C[C@H](N[C@@H](CCc1ccccc1)C(=O)O)C(=O)N1CCC[C@H]1C(=O)O [Enalaprilat Dihydrate] | 25.6 | 12.8 |
| C#Cc1cccc(Nc2ncnc3cc4c(cc23)OCCOCCOCCO4)c1 [Icotinib] | < 0 | 26.4 |
| C[C@@H]1COC(Nc2ccc3ncnc(Nc4ccc(OCc5nccs5)c(Cl)c4)c3c2)=N1 [Varlitinib] | < 0 | 7.81 |
| C[C@]12CCC(=O)C=C1[C@@H]1C[C@@H]1[C@H]1[C@@H]3[C@@H]4C[C@@H]4[C@@]4(CCC(=O)O4)[C@@]3(C)CC[C@@H]12 [Drospirenone] | 8.5 | 33.1 |
| CCCCOc1ccc(C(=O)Nc2ccc(F)cc2F)cc1 | 16.7 | 54.6 |
| Cc1c(-c2ccc(O)cc2)n(Cc2ccc(OCCN3CCCCCC3)cc2)c2ccc(O)cc12 [Bazedoxifene HCl] | < 0 | 25.2 |
| CO[C@H]1C[C@@H]2CC[C@@H](C)[C@@](O)(O2)C(=O)C(=O)N2CCCC[C@H]2C(=O)O[C@H]([C@H](C)C[C@@H]2CC[C@@H](O)[C@H](OC)C2)CC(=O)[C@H](C)/C=C(\C)[C@@H](O)[C@@H](OC)C(=O)[C@H](C)C[C@H](C)/C=C/C=C/C=C/1C [Rapamycin (Sirolimus)] | 74.9 | 49.7 |
| COc1ccc2c(c1)c(CC(=O)OCC(=O)O)c(C)n2C(=O)c1ccc(Cl)cc1 [Acemetacin] | 24.2 | 1.06 |
| CCS(=O)(=O)N1CC(CC#N)(n2cc(-c3ncnc4[nH]ccc34)cn2)C1 | 22 | 29.7 |
| Cn1c(=O)cc(N2CCC[C@@H](N)C2)n(Cc2ccccc2C#N)c1=O [Alogliptin] | 23 | 30.5 |
| CCO[C@@H]1OC(=O)C[C@@H]1NC(=O)[C@@H]1CCCN1C(=O)[C@@H](NC(=O)c1ccc(N)c(Cl)c1)C(C)(C)C | < 0 | < 0 |
| C[C@H]1COC2=C1C(=O)C(=O)c1c2ccc2c1CCCC2(C)C [Cryptotanshinone] | 15.1 | 17.8 |
| CCCC(CCC)C(=O)O [Valproic acid sodium salt (Sodium valproate)] | 27.3 | 36.1 |
| Cc1cc(NC(=O)Nc2ccc(N(C)C)cc2)c2cc(F)cc(F)c2n1 | 19 | 10.9 |
| CC1C(=O)OC2C(O)C34C5CC(C(C)(C)C)C36C(OC(=O)C6O)OC4(C(=O)O5)C12O (stereo not given) [Ginkgolide B] | 13 | 42.2 |
| NC(N)=Nc1nc(CSCC/C(N)=N/S(N)(=O)=O)cs1 [Famotidine] | 28.9 | 21.8 |
| O=C(Nc1ccc(S(=O)(=O)Nc2ccccc2Cl)c(Cl)c1)c1ccccn1 | 44.2 | 4.32 |
| CNC(=O)c1ccc(C)c(-n2c(C)cc(OCc3ccc(F)cc3F)c(Br)c2=O)c1 | < 0 | 6.25 |
| Cc1ccc([C@@H]2O[C@H](CO)[C@@H](O)[C@H](O)[C@H]2O)cc1Cc1ccc(-c2ccc(F)cc2)s1 [Canagliflozin] | < 0 | 7.81 |
| C#CCC(Cc1cnc2nc(N)nc(N)c2n1)c1ccc(C(=O)N[C@@H](CCC(=O)O)C(=O)O)cc1 (stereo not given in full) [Pralatrexate] | 41.2 | 18.4 |
| C[C@@H](Oc1cc(-c2cnn(C3CCNCC3)c2)cnc1N)c1c(Cl)ccc(F)c1Cl | 84.2 | 70.5 |
| O=C1CCc2ccc(OCCCCN3CCN(c4cccc(Cl)c4Cl)CC3)cc2N1 [Aripiprazole] | 42.6 | 19.6 |
| c1cc(-c2cnn3cc(-c4ccc(N5CCNCC5)cc4)cnc23)c2cccnc2c1 | 74.6 | 95.8 |
| CCOC(=O)[C@H](CCc1ccccc1)N[C@@H](C)C(=O)N1[C@H](C(=O)O)C[C@@H]2CCC[C@@H]21 [Ramipril] | 47.5 | 23.5 |
| CNC(=O)c1ccccc1Sc1ccc2c(/C=C/c3ccccn3)n[nH]c2c1 [Axitinib] | 83 | 67.2 |
| O=C(c1ccc(F)cc1)N1CCC[C@H](c2nc(-c3ccc(F)cc3)no2)C1 | < 0 | < 0 |
| CCN[C@H]1CN(CCCOC)S(=O)(=O)c2sc(S(N)(=O)=O)cc21 [Brinzolamide] | < 0 | 0.327 |
